This is an account of results in ChEMBL document CHEMBL4888484, “Replenishing the malaria drug discovery pipeline: Screening and hit evaluation of the MMV Hit Generation Library 1 (HGL1) against asexual blood stage Plasmodium falciparum ,using a nano luciferase reporter read-out” (2022).

About 540 (0.36%) of roughly 150,000 compounds showed an effect of 50% or more. This is one part of the list.

For the assay, the system named is Plasmodium falciparum. In words: Primary screen in NF54 nanoGlo assay, in single point, at 2uM, 72h; a lower Z score goes with more inhibition. The format is functional, Erythrocyte. To be noted: timepoint 72 hour.
Take `CC[C@@H](CNC(=O)Nc1ncn(CC)n1)N1CCOCC1`: the “% Inhibition” value was -2% and the Z score is 0.31.

On to `Cc1nc(O)c2nnn(Cc3ccccc3Cl)c2n1`, for which the “% Inhibition” value is -8% and the Z score is recorded as 0.92.

For `CS(=O)(=O)c1ccc(CN2C[C@@H]3C[C@H]2C(=O)Nc2ccccc2O3)cc1`, the “% Inhibition” value was -17% and the Z score was found to be 2.6.

In the case of `O=S(=O)(c1cc(Cl)cc(Cl)c1)N1CCOC[C@H]1c1nc[nH]n1`, the “% Inhibition” value is on record as -15% and the Z score worked out at 1.38.

With `Cc1cccnc1C(NC(C)C(=O)NC1(C#N)CCCCC1)C(C)C` (centres undefined), the “% Inhibition” value is listed as -3% and the Z score is recorded as 0.54.

As to `O=S(=O)(c1ccccc1F)N1CC(O)(c2cnn[nH]2)C1`, the “% Inhibition” value is on record as -4% and the Z score is on record as 0.84.

For `CCCCOc1ccc(-c2ccc(C)cc2)cc1[C@H]1Nc2ccccc2C(=O)N1c1ccccc1`, the “% Inhibition” value was 39% and the Z score is -5.04.

Take `O=S(=O)(Nc1ncccc1Cl)c1cnc(-c2ccccc2)nc1`: the “% Inhibition” value is reported as -6% and the Z score came out at 0.71.

For `O=C(CCCC(=O)c1ccccc1)NCc1ccc(C2CC2)nc1`, the “% Inhibition” value worked out at 10% and the Z score is listed as -1.33.

As for `COCC(=O)NC1CN(C(=O)c2cc(C(C)C)on2)C1`, the “% Inhibition” value was -10% and the Z score was 0.84.

Take `CCc1nc([C@H](C)NC(=O)Nc2nc(COC)cs2)cs1`: the “% Inhibition” value is -11% and the Z score stood at 1.2.

Take `O=S1(=O)CCN(CCCNCc2cc(Cl)ccc2F)CC1`: the “% Inhibition” value was 4% and the Z score is reported as -0.51.

In the case of `COc1cc(OC)cc(OCc2nnc(C)n2C2CC2)c1`, the “% Inhibition” value came to 3% and the Z score is -0.32.

As for `CC(C)(C)c1ccc(COC(=O)c2ccc(Cl)c(S(=O)(=O)N3CCCCCC3)c2)cc1`, the “% Inhibition” value worked out at 2% and the Z score is -0.3.

Turning to `O=C(NC1CCCCC1)c1ccc(Nc2ncc(-c3cccc(F)c3)cn2)cc1`, the “% Inhibition” value was -9% and the Z score was 1.43.

With `c1cc([C@@H]2CN(Cc3noc(C4CC4)n3)CCO2)cs1`, the “% Inhibition” value stood at 35% and the Z score is recorded as -5.12.

In the case of `C[C@H](C(=O)N(C)CCN(C)c1nccc(Oc2ccccc2)n1)c1ccccc1`, the “% Inhibition” value is 16% and the Z score was -2.33.

In the case of `Cc1ccc2c(c1)CN(Cc1n[nH]cc1C)CCO2`, the “% Inhibition” value was determined as 8% and the Z score is -0.79.

Consider `Cn1cc(-c2nccnc2CNC(=O)Cn2cnc3ccccc3c2=O)cn1`, for which the “% Inhibition” value is -9% and the Z score is listed as 1.04.

Take `CC(=O)c1c(C)nn(CCc2ncnn2Cc2ccc3c(c2)OCO3)c1C`: the “% Inhibition” value is -2% and the Z score was found to be 0.2.

Turning to `CN1CCO[C@@H](CN(CC2CC2)C(=O)c2cnn(C)c2)C1`, the “% Inhibition” value is given as -2% and the Z score is 0.4.

Consider `CC(=O)Nc1ccc(O)c(C(F)(F)F)c1`, for which the “% Inhibition” value is given as 2% and the Z score was -0.19.

Consider `COc1ccc(C(=O)N2CCC[C@H](n3cc(-c4nc(C5CC5)no4)nn3)C2)cc1F`, for which the “% Inhibition” value is listed as -2% and the Z score is on record as 0.31.

In the case of `CCN(C)C(=O)c1cccc(Nc2c(Oc3ccc(F)cc3)cnn(-c3ccc(F)cc3)c2=O)c1`, the “% Inhibition” value is -4% and the Z score came out at 0.55.

With `Cc1ccc(NC(=O)c2c(-c3ccccc3)n(Cc3cccs3)c(=O)n2CCN2CCOCC2)cc1C`, the “% Inhibition” value was -12% and the Z score amounted to 1.34.

For `CCOc1ccc(-c2[nH]c3[nH]c(=O)[nH]c(=O)c3c2-c2ccc(OC)cc2)cc1OC`, the “% Inhibition” value stood at 4% and the Z score is given as -0.59.

In the case of `CCn1c(-c2cn(CCOC(C)C)nn2)nc2ccccc21`, the “% Inhibition” value is listed as -21% and the Z score amounted to 2.08.

Consider `OC[C@H]1C=C[C@@H](NC2CCCc3ccc(F)cc32)C1` (some centres undefined), for which the “% Inhibition” value worked out at 7% and the Z score was -0.83.

As to `COc1cc(Cl)c(C)cc1NC(=O)[C@H]1CCCN(c2nc3cccnc3s2)C1`, the “% Inhibition” value is given as -15% and the Z score is listed as 1.31.

Regarding `Cc1noc(C)c1S(=O)(=O)N[C@H](c1cnn(C)c1)C1CC(O)C1` (some centres undefined), the “% Inhibition” value was -8% and the Z score is given as 1.53.

Take `O=C1CCCN1c1cccc(C(=O)N2CCCn3nnnc32)c1`: the “% Inhibition” value is given as -3% and the Z score was found to be 0.38.

On to `N#Cc1ccc(CNC(=O)NCc2ccsc2)c(F)c1`, for which the “% Inhibition” value is -1% and the Z score turned out to be 0.12.

With `CCc1ccc(CN2CCC[C@H](c3ncc[nH]3)C2)nc1`, the “% Inhibition” value came out at 65% and the Z score is reported as -9.74.

Regarding `O=C(NCCc1ccccc1)C(=O)NCC1(O)CCOCC1`, the “% Inhibition” value came out at 5% and the Z score is -0.64.

Turning to `Cc1ncncc1-c1noc(C(C)(C)Oc2ccc(C(F)(F)F)cc2)n1`, the “% Inhibition” value is listed as -2% and the Z score worked out at 0.34.

For `O=C(N[C@H]1CCc2ccccc21)c1cccc(-n2cnnn2)c1`, the “% Inhibition” value is recorded as -12% and the Z score came out at 1.63.

Take `CCOc1ccccc1-c1cc(C(=O)NCc2ccccc2)c2c(-c3ccccc3)[nH]nc2n1`: the “% Inhibition” value is recorded as -23% and the Z score worked out at 3.07.

On to `Cn1cc(-c2nc(-c3ccccc3)c(-c3ccc(-c4ccccc4)cc3)[nH]2)c2ccccc21`, for which the “% Inhibition” value is reported as 5% and the Z score is on record as -0.81.

In the case of `Cc1nc[nH]c1CN1C[C@H]2CC[C@@H](C1)N(Cc1cc(CC(C)C)[nH]n1)C2`, the “% Inhibition” value was -5% and the Z score came to 0.84.

As for `C[C@H]1C(=O)N2C[C@@H](N(C)C)C[C@H]2CN1C(=O)c1ccc2ncccc2c1`, the “% Inhibition” value is reported as -1% and the Z score is listed as 0.08.

With `O=C(Nc1ccc(Cc2nnn[nH]2)cc1)c1ccc(Cl)cn1`, the “% Inhibition” value was -7% and the Z score came to 0.73.

For the compound `COCCN1CC[C@H](NCc2ccc3c(c2)CCO3)C1`, the “% Inhibition” value was found to be 6% and the Z score is -0.83.

For orientation: % Inhibition means the relative decrease from the control value, in per cent.
